Reference: the supplement of paper PMC4604168 (melanoma cell lines)
This is one part of the list. Single values are uncertain, as repeats are few or missing.

What was measured:
Assay in all cases: cell count relative to DMSO control; melanoma cells; higher = more viable cells
Settings in all cases: library dose: low library concentration; 72 h
[1] = tested on: MZ2-MEL
[2] = tested on: MeWo
[3] = tested on: RPMI7951
[4] = tested on: RVH-421
[5] = tested on: SkMel28
[6] = tested on: SkMel2
[7] = tested on: SkMel30
[8] = tested on: SkMel5
[9] = tested on: UACC257
[10] = tested on: UACC62
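Also: cell number obtained by counting DAPI-stained nuclei in high-throughput microscope images with image analysis software, screen run in 1,536-well plates.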

SMILES | cell count [1] [%] | cell count [2] [%] | cell count [3] [%] | cell count [4] [%] | cell count [5] [%] | cell count [6] [%] | cell count [7] [%] | cell count [8] [%] | cell count [9] [%] | cell count [10] [%]
CNC(=O)c1cc(Oc2ccc(NC(=O)Nc3ccc(Cl)c(C(F)(F)F)c3)cc2)ccn1 [sorafenib] + COc1cc(N2CCC(N3CCN(C)CC3)CC2)ccc1Nc1ncc(Cl)c(Nc2ccccc2S(=O)(=O)C(C)C)n1 [NVP-TAE684] (first compound 0.4 µM, partner dose 0.08 µM) | 90.3 | 85.6 | 92.2 | 107 | 93 | 96.7 | 64.2 | 91 | 87.5 | 94.4
CN1CCN(c2ccc3nc(-c4c(N)c5c(F)cccc5[nH]c4=O)[nH]c3c2)CC1 [Dovitinib] + CC(C)CCN1c2nc(Nc3cc(F)c(O)c(F)c3)ncc2N(C)C(=O)C1C [BID1870] (first compound 0.1 µM, partner dose 0.2 µM) | 103 | 79.1 | 103 | 167 | 77.7 | 95.8 | 106 | 106 | 117 | 95.5
C=CCNC1=C2C[C@@H](C)C[C@H](OC)[C@H](O)[C@@H](C)/C=C(\C)[C@H](OC(N)=O)[C@@H](OC)/C=C\C=C(/C)C(=O)NC(=CC1=O)C2=O [Tanespimycin] + Oc1cc(-c2nc(-c3ccccc3)[nH]c2-c2ccncc2)ccc1Cl [L779450] (first compound 0.002 µM, partner dose 0.2 µM) | 85 | 99.1 | 88.6 | 77 | 88.2 | 102 | 96.2 | 102 | 102 | 85.4
CN1CCN(c2ccc3nc(-c4c(N)c5c(F)cccc5[nH]c4=O)[nH]c3c2)CC1 [Dovitinib] + c1cc(-c2cnn3cc(-c4ccc(OCCN5CCCCC5)cc4)cnc23)ccn1 [Dorsomorphin] (first compound 0.1 µM, partner dose 0.4 µM) | 103 | 86.8 | 100 | 99.5 | 96.4 | 126 | 54.6 | 81 | 92.3 | 82
C=CCNC1=C2C[C@@H](C)C[C@H](OC)[C@H](O)[C@@H](C)/C=C(\C)[C@H](OC(N)=O)[C@@H](OC)/C=C\C=C(/C)C(=O)NC(=CC1=O)C2=O [Tanespimycin] + Oc1nc(-c2ccc(C(F)(F)F)cc2)nc2c1CSCC2 [XAV939] (first compound 0.002 µM, partner dose 2 µM) | 91.9 | 87.8 | 80.5 | 88.8 | 80.8 | 99.2 | 98.9 | 88.3 | 85 | 104
CN1CCN(c2ccc3nc(-c4c(N)c5c(F)cccc5[nH]c4=O)[nH]c3c2)CC1 [Dovitinib] + Cn1cncc1[C@@](N)(c1ccc(Cl)cc1)c1ccc2c(c1)c(-c1cccc(Cl)c1)cc(=O)n2C [tipifarnib] (first compound 0.1 µM, partner dose 0.01 µM) | 83.5 | 86.6 | 95.3 | 81.8 | 67.1 | 85.4 | 76.8 | 101 | 75.9 | 65.2
C=CCNC1=C2C[C@@H](C)C[C@H](OC)[C@H](O)[C@@H](C)/C=C(\C)[C@H](OC(N)=O)[C@@H](OC)/C=C\C=C(/C)C(=O)NC(=CC1=O)C2=O [Tanespimycin] + NCC(=O)Nc1ccc(-n2nc(C(F)(F)F)cc2-c2ccc3c(ccc4ccccc43)c2)cc1 [OSU03012] (first compound 0.002 µM, partner dose 1 µM) | 92.9 | 56 | 102 | 97.3 | 79.4 | 71.2 | 53.2 | 85.3 | 91.6 | 90.5
C=CCNC1=C2C[C@@H](C)C[C@H](OC)[C@H](O)[C@@H](C)/C=C(\C)[C@H](OC(N)=O)[C@@H](OC)/C=C\C=C(/C)C(=O)NC(=CC1=O)C2=O [Tanespimycin] + O=C(O)C(=O)Nc1sc2c(c1C(=O)O)CCNC2 [TCS401] (first compound 0.002 µM, partner dose 1.66667 µM) | 103 | 94.9 | 86.9 | 191 | 88.1 | 96.3 | 96.3 | 98.5 | 95.7 | 91.6
CNC(=O)c1cc(Oc2ccc(NC(=O)Nc3ccc(Cl)c(C(F)(F)F)c3)cc2)ccn1 [sorafenib] + NC(=O)Nc1cc(-c2cccc(F)c2)sc1C(=O)N[C@H]1CCCNC1 [AZD7762] (first compound 0.4 µM, partner dose 0.02 µM) | 105 | 98.4 | 83.4 | 106 | 97.9 | 93.1 | 94 | 107 | 108 | 84.1
CN1CCN(c2ccc3nc(-c4c(N)c5c(F)cccc5[nH]c4=O)[nH]c3c2)CC1 [Dovitinib] + NCC(=O)Nc1ccc(-n2nc(C(F)(F)F)cc2-c2ccc3c(ccc4ccccc43)c2)cc1 [OSU03012] (first compound 0.1 µM, partner dose 1 µM) | 93 | 55.4 | 86.3 | 88.6 | 72.4 | 81.1 | 56 | 89.5 | 83.8 | 87.1
CS(=O)(=O)CCNCc1ccc(-c2ccc3ncnc(Nc4ccc(OCc5cccc(F)c5)c(Cl)c4)c3c2)o1 [lapatinib] + CCN(CC)CCCCNc1ncc2cc(-c3cc(OC)cc(OC)c3)c(NC(=O)NC(C)(C)C)nc2n1 [PD173074] (first compound 0.8 µM, partner dose 0.1 µM) | 96.2 | 83.9 | 92.2 | 111 | 94.1 | 98.1 | 94.7 | 105 | 91.9 | 91.7
